Experimental data published in PubChem BioAssay (NCI).
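Compound exposure: 48 hours, 5 concentrations, 96-well plates. GI50: concentration for 50% inhibition of growth. TGI is the concentration that stops growth completely.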

Tested on: NCI-H322M lung
Assay: DTP human tumour cell line panel, 48 h

Q: With `COc1cc2cc(Oc3ccc(NC(=O)c4cccc(C(F)(F)F)c4)cc3)c(C)nc2cc1OCCN1CCCCC1` as the compound, how does the GI50 read?
A: 25.2 µM

Q: What about the TGI of the same compound?
A: 72.2 µM
